Two molecules from paper PMC9342770 can be followed below.

These are yes or no findings as the source states them, for the method shown. Some results given as binding are weak or reduced against the parent protein; the word gives no strength.

Test [1] has as its target T1, ASY1 (Arabidopsis) (UniProt F4HRV8).
T1 sequence: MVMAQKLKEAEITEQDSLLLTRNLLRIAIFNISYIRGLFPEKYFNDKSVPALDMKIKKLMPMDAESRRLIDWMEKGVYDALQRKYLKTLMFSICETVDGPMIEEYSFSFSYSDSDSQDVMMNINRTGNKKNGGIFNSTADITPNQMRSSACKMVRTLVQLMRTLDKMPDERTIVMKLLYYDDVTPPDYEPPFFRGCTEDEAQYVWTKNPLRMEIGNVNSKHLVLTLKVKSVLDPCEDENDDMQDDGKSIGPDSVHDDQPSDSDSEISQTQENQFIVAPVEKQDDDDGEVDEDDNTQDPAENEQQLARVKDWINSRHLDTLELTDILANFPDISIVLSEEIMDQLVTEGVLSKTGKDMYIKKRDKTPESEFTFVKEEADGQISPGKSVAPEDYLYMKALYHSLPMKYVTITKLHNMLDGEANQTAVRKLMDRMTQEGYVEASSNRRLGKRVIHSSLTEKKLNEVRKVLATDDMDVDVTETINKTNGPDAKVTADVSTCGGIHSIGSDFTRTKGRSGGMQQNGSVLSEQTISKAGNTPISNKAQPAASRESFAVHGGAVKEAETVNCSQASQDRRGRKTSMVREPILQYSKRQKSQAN
Kind of test: two-hybrid; GAL4 yeast two-hybrid in Y2HGold; AD (pGADT7) and BD (pGBKT7) fusions co-transformed; growth on low-stringency medium SD-LTH (lacking leucine, tryptophan and histidine); 30°C; serial drop dilutions.

Test [2] concerns the target T2, ASY3 (Arabidopsis) (UniProt Q0WR66).
T2 sequence: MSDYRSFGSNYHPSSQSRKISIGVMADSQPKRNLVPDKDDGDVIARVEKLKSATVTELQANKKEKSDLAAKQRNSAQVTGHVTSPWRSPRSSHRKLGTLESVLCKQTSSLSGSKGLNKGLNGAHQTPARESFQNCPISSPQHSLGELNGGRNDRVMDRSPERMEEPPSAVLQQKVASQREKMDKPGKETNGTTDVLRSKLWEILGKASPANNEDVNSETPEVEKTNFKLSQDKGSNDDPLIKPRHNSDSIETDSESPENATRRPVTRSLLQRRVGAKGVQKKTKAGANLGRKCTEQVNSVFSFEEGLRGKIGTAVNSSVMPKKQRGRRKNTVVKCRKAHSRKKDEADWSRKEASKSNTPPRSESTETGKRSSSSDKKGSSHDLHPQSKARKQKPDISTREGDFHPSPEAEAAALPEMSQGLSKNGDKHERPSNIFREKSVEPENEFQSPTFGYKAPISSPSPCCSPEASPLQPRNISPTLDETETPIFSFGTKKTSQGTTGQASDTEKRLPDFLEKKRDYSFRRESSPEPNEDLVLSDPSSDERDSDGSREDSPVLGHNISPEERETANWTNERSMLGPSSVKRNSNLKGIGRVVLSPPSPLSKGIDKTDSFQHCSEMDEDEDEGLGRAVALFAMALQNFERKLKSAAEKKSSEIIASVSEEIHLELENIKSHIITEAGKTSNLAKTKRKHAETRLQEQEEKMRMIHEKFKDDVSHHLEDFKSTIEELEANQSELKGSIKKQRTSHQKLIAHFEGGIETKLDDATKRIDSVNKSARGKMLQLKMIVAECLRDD
The description is as above.

The target in test [3] is T3, PCH2 (Arabidopsis) (UniProt Q8H1F9).
T3 sequence: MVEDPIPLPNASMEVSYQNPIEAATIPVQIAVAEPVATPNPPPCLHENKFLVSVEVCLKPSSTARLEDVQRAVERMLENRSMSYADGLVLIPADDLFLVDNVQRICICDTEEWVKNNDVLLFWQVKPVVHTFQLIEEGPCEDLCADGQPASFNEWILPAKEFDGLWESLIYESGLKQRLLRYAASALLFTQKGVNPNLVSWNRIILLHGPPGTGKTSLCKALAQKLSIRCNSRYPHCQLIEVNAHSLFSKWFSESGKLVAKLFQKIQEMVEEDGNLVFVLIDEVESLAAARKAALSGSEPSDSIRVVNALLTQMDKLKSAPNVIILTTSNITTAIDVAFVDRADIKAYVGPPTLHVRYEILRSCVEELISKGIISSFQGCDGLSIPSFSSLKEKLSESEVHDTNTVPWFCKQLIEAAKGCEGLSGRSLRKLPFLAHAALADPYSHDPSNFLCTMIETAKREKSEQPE
The description is as above.

Test [4] concerns the target PRD3 (Arabidopsis) (UniProt Q0WWX5). Described as above.
Test [5] addresses T2, ASY3 (Arabidopsis). Kind of test: two-hybrid; GAL4 yeast two-hybrid in Y2HGold; AD (pGADT7) and BD (pGBKT7) fusions co-transformed; growth on high-stringency medium SD-LTHA (lacking leucine, tryptophan, histidine and adenine); 30°C; serial drop dilutions.
The target in test [6] is T3, PCH2 (Arabidopsis). Described as above.
The target of test [7] is T1, ASY1 (Arabidopsis). Kind of test: condition: only on the most stringent medium SD -LTHA (lacking leucine, tryptophan, histidine and adenine); two-hybrid; GAL4 yeast two-hybrid in Y2HGold; AD (pGADT7) and BD (pGBKT7) fusions co-transformed; growth on high-stringency medium SD-LTHA (lacking leucine, tryptophan, histidine and adenine); 30°C; serial drop dilutions.

B1: PRD3 (protein, UniProt Q0WWX5 1-449)
chain: MKMNINKACDLKSISVFPPNLRRSAEPQASQQLRSQQSQQSFSQGPSSSQRGCGGFSQMTQSSIDELLINDQRFSSQERDLSLKKVSSCLPPINHKREDSQLVASRSSSGLSRRWSSASIGESKSQISEELEQRFGMMETSLSRFGMMLDSIQSDIMQANRGTKEVFLETERIQQKLTLQDTSLQQLRKEQADSKASLDGGVKFILEEFSKDPNQEKLQKILQMLTTIPEQVETALQKIQREICHTFTREIQVLASLRTPEPRVRVPTAPQVKAKENLPEQRGQAAKVLTSLKMPEPRVQVPAAPQAKENFPEQRGPVAKSNSFCNTTLKTKQPQFPRNPNDASARAVKPYLSPKIQVGCWKTVKPEKSNFKKRATRKPVKSESTRTQFEQCSVVIDSDEEDIDGGFSCLINENTRGTNFEWDAEKETERILRTARRTKRKFGNPIIIN
As to B1, the binding result in test [1] is “binds weakly”; in test [2], “binds”; in test [3] it was “binds”; in test [4], “binds”; in test [5], “binds”; in test [6] it was “binds”. Besides, the binding entry in test [7] is “no binding”.

B2: PCH2 (protein, UniProt Q8H1F9 1-467)
chain: T3 sequence
For the molecule B2, in test [3], the binding entry is given as “binds”.
